Reference: the GPR68 mutational scans of Howard et al. (2025)
Scores whose standard error is large were omitted. Not listed are two conditions whose scores span a narrow range. Names with del lack the residues named; names with ins carry added residues between the positions named. For some of these results: The concentration of ogerin is not given here.

B1: GPR68, Q15743 (parent)
chain: MGNITADNSSMSCTIDHTIHQTLAPVVYVTVLVVGFPANCLSLYFGYLQIKARNELGVYLCNLTVADLFYICSLPFWLQYVLQHDNWSHGDLSCQVCGILLYENIYISVGFLCCISVDRYLAVAHPFRFHQFRTLKAAVGVSVVIWAKELLTSIYFLMHEEVIEDENQHRVCFEHYPIQAWQRAINYYRFLVGFLFPICLLLASYQGILRAVRRSHGTQKSRKDQIQRLVLSTVVIFLACFLPYHVLLLVRSVWEASCDFAKGVFNAYHFSLLLTSFNCVADPVLYCFVSETTHRDLARLRGACLAFLTCSRTGRAREAYPLGAPEASGKSGAQGEEPELLTKLHPAFQTPNSPGSGGFPTGRLA

Legend:
[1] = variants of: B1; test: cAMP reporter score (Enrich2 score, wild type = 0); higher = more signal; HEK293T, FACS bins
[2] = variants of: B1; test: surface expression score (Enrich2 score, wild type = 0); higher = more signal; HEK293T, FACS bins

Variant	cAMP reporter score ([1]; pH 5.5)	cAMP reporter score ([1]; pH 6)	cAMP reporter score ([1]; pH 6, modulator: ogerin)	cAMP reporter score ([1]; pH 6.5, modulator: ogerin)	surface expression score [2]
MGNITADNSSMSCTIDHTIHQTLAPVVYVTVLVVGFPANCLSLYFGYLQIKARNELGVYLCNLTVADLFYICSLPFWLQYVLQHDNWSHGDLSCQVCGILLYENIYISVGFLCCISVDRYLAVAHPFRFHQFRTLKAAVGVSVVIWAKELLTSIYFLMHEEVIEDENQHRVCFEHYPIQAWQRAINYYRFLVGFLFPICLLLASYQGILRAVRRSHGTQKSRKDQIQRLVLSTVVIFLACFLPYHVLLLVRGVWEASCDFAKGVFNAYHFSLLLTSFNCVADPVLYCFVSETTHRDLARLRGACLAFLTCSRTGRAREAYPLGAPEASGKSGAQGEEPELLTKLHPAFQTPNSPGSGGFPTGRLA [S252G]	-0.603	-0.011	-0.216	0.178	-0.606
MGNITADNSSMSCTIDHTIHQTLAPVVYVTVLVVGFPANCLSLYFGYLQIKARNELGVYLCNLTVADLFYICSLPFWLQYVLQHDNWSHGDLSCQVCGILLYENIYISVGFLCCISVDRYLAVAHPFRFHQFRTLKAAVGVSVVIWAKELLTSIYFLMHEEVIEDENQHRVCFEHYPIQAWQRAINYYRFLVGFLFPICLLLASYQGILRAVRRSHGTQKSRKDQIQRLVLSTVVIFLACFLPYHVLLLVRHVWEASCDFAKGVFNAYHFSLLLTSFNCVADPVLYCFVSETTHRDLARLRGACLAFLTCSRTGRAREAYPLGAPEASGKSGAQGEEPELLTKLHPAFQTPNSPGSGGFPTGRLA [S252H]	-0.211	-0.896	-1.46	-1.15	-1.34
